# Positions count from the first letter of the chain named. This is one part of the list.
# T1: RBFOX1 RRM (Homo sapiens, UniProt Q9NWB1 109-208)
# T1 sequence: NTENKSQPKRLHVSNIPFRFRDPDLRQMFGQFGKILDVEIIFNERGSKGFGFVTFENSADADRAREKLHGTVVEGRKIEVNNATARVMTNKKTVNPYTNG
# B1: AGAAGCG (DNA:RNA)
# RNA: GGGAGACCGGAAUUCAGAUUGUCCAGAAGCGUUAAAUCCCGUCGUAGCCACCA
# DNA 1: CAATCTGAATTCCGGTCTCCC
# DNA 2: TGGTGGCTACGACGGGATT
# B2: CCAAAAG (DNA:RNA)
# RNA: B1 RNA with A25C, G26C, G29A, C30A
# DNA 1: CAATCTGAATTCCGGTCTCCC
# DNA 2: TGGTGGCTACGACGGGATT
# B3: UGCCGGA (DNA:RNA)
# RNA: B1 RNA with A25U, A27C, A28C, C30G, G31A
# DNA 1: CAATCTGAATTCCGGTCTCCC
# DNA 2: TGGTGGCTACGACGGGATT
# B4: UCUGGAU (DNA:RNA)
# RNA: B1 RNA with A25U, G26C, A27U, A28G, C30A, G31U
# DNA 1: CAATCTGAATTCCGGTCTCCC
# DNA 2: TGGTGGCTACGACGGGATT
# B5: ACCUACU (DNA:RNA)
# RNA: B1 RNA with G26C, A27C, A28U, G29A, G31U
# DNA 1: CAATCTGAATTCCGGTCTCCC
# DNA 2: TGGTGGCTACGACGGGATT
# B6: CUGGUGU (DNA:RNA)
# RNA: GGGAGACCGGAAUUCAGAUUGUCCCUGGUGUUUAAAUCCCGUCGUAGCCACCA
# DNA 1: CAATCTGAATTCCGGTCTCCC
# DNA 2: TGGTGGCTACGACGGGATT
# B7: UAGCGGG (DNA:RNA)
# RNA: B1 RNA with A25U, G26A, A27G, A28C, C30G
# DNA 1: CAATCTGAATTCCGGTCTCCC
# DNA 2: TGGTGGCTACGACGGGATT
# B8: GCACGUA (DNA:RNA)
# RNA: B1 RNA with A25G, G26C, A28C, C30U, G31A
# DNA 1: CAATCTGAATTCCGGTCTCCC
# DNA 2: TGGTGGCTACGACGGGATT
# B9: GUUUUAA (DNA:RNA)
# RNA: B6 RNA with C25G, G27U, G28U, G30A, U31A
# DNA 1: CAATCTGAATTCCGGTCTCCC
# DNA 2: TGGTGGCTACGACGGGATT
# B10: AUGUCAG (DNA:RNA)
# RNA: B1 RNA with G26U, A27G, A28U, G29C, C30A
# DNA 1: CAATCTGAATTCCGGTCTCCC
# DNA 2: TGGTGGCTACGACGGGATT
# B11: AAAAAGG (DNA:RNA)
# RNA: B1 RNA with G26A, G29A, C30G
# DNA 1: CAATCTGAATTCCGGTCTCCC
# DNA 2: TGGTGGCTACGACGGGATT
# B12: AAUUGCC (DNA:RNA)
# RNA: B1 RNA with G26A, A27U, A28U, G31C
# DNA 1: CAATCTGAATTCCGGTCTCCC
# DNA 2: TGGTGGCTACGACGGGATT
# B13: GGGUAAC (DNA:RNA)
# RNA: B1 RNA with A25G, A27G, A28U, G29A, C30A, G31C
# DNA 1: CAATCTGAATTCCGGTCTCCC
# DNA 2: TGGTGGCTACGACGGGATT
# B14: AAUGACU (DNA:RNA)
# RNA: B1 RNA with G26A, A27U, A28G, G29A, G31U
# DNA 1: CAATCTGAATTCCGGTCTCCC
# DNA 2: TGGTGGCTACGACGGGATT
# B15: GAAAAAU (DNA:RNA)
# RNA: B1 RNA with A25G, G26A, G29A, C30A, G31U
# DNA 1: CAATCTGAATTCCGGTCTCCC
# DNA 2: TGGTGGCTACGACGGGATT
# B16: CACUGAC (DNA:RNA)
# RNA: B1 RNA with A25C, G26A, A27C, A28U, C30A, G31C
# DNA 1: CAATCTGAATTCCGGTCTCCC
# DNA 2: TGGTGGCTACGACGGGATT
# B17: GGAAUUA (DNA:RNA)
# RNA: B1 RNA with A25G, G29U, C30U, G31A
# DNA 1: CAATCTGAATTCCGGTCTCCC
# DNA 2: TGGTGGCTACGACGGGATT
# B18: AAGCAAC (DNA:RNA)
# RNA: B1 RNA with G26A, A27G, A28C, G29A, C30A, G31C
# DNA 1: CAATCTGAATTCCGGTCTCCC
# DNA 2: TGGTGGCTACGACGGGATT
# B19: AGUGCUU (DNA:RNA)
# RNA: B1 RNA with A27U, A28G, G29C, C30U, G31U
# DNA 1: CAATCTGAATTCCGGTCTCCC
# DNA 2: TGGTGGCTACGACGGGATT
# B20: UCAAACC (DNA:RNA)
# RNA: B1 RNA with A25U, G26C, G29A, G31C
# DNA 1: CAATCTGAATTCCGGTCTCCC
# DNA 2: TGGTGGCTACGACGGGATT
# Biological target: T1, RBFOX1 RRM
# Experiment: EMSA; HiTS-Eq, 1 nM pool, 10 min; buffer printed only for the single-RNA assays: 10 mM Tris pH 7.5, 150 mM NaCl, 3.4 mM EDTA, 0.001% NP-40, 30 C
# Conditions: tags: His6 N-terminal (pET28a); label: 5' 32P
# Outline: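 Relative association constants, normalised to the cognate motif, were derived by comparing read counts of each RNA species with those of the control reaction. The RNA sequenced was the free fraction, separated by 8% native PAGE after a 10 min equilibration in 50 µL of 1 nM 5′-radiolabelled RNA (7 randomized nucleotides) with increasing concentrations of purified wild-type or mutant RbFox RRM.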
row,Binder,binding signal
1,B1,0.0068 KA relative to UGCAUGU
2,B2,0.00128 KA relative to UGCAUGU
3,B3,0.0112 KA relative to UGCAUGU
4,B4,0.00758 KA relative to UGCAUGU
5,B5,0.000725 KA relative to UGCAUGU
6,B6,0.0254 KA relative to UGCAUGU
7,B7,0.00967 KA relative to UGCAUGU
8,B8,0.0281 KA relative to UGCAUGU
9,B9,0.01 KA relative to UGCAUGU
10,B10,0.0117 KA relative to UGCAUGU
11,B11,0.00235 KA relative to UGCAUGU
12,B12,0.00637 KA relative to UGCAUGU
13,B13,0.022 KA relative to UGCAUGU
14,B14,0.00439 KA relative to UGCAUGU
15,B15,0.00129 KA relative to UGCAUGU
16,B16,0.00646 KA relative to UGCAUGU
17,B17,0.00812 KA relative to UGCAUGU
18,B18,0.00697 KA relative to UGCAUGU
19,B19,0.0147 KA relative to UGCAUGU
20,B20,0.00136 KA relative to UGCAUGU
